# Reference: a collection of fitness landscapes (doi:10.1126/science.1257360)
# Some of the results follow.
# B1: PhoQ; a variant is named by its letters at X, in order, P23837 (parent)
# chain: MKKLLRLFFPLSLRVRFLLATAAVVLVLSLAYGMVALIGYSVSFDKTTFRLLRGESNLFYTLAKWENNKLHVELPENIDKQSPTMTLIYDENGQLLWAQRDVPWLMKMIQPDWLKSNGFHEIEADVNDTSLLLSGDHSIQQQLQEVREDDDDAEMTHSVAVNVYPATSRMPKLTIVVVDTIPVELKSSYMVWSWFIYVLSANLLLVIPLLWVAAWWSLRPIEALAKEVRELEEHNRELLNPATTRELTSLVRNLNRLLKSERERYDKYRTTLTDLTHSLKTPLXXLQXXLRSLRSEKMSVSDAEPVMLEQISRISQQIGYYLHRASMRGGTLLSRELHPVAPLLDNLTSALNKVYQRKGVNISLDISPEISFVGEQNDFVEVMGNVLDNACKYCLEFVEISARQTDEHLYIVVEDDGPGIPLSKREVIFDRGQRVDTLRPGQGVGLAVAREITEQYEGKIVAGESMLGGARMEVIFGRQHSAPKDE
# Variants of: B1
# Assay: enrichment ratio after two sorts for PhoP signalling (ratio (wild type AVST 3.29)); higher = more functional
# Settings: with PhoP (E. coli)
row,Variant,enrichment ratio
1,FLSQ,≤ 0.25
2,YHQC,≤ 0.25
3,HGYG,≤ 0.25
4,EWTW,≤ 0.25
5,PYWD,≤ 0.25
6,LRTS,≤ 0.25
7,MSME,≤ 0.25
8,IHVV,≤ 0.25
9,IQIR,≤ 0.25
10,SVMN,6.82
11,YNSH,≤ 0.25
12,EHNM,≤ 0.25
13,SPRI,≤ 0.25
14,YRHL,≤ 0.25
15,FQPS,≤ 0.25
16,NLGS,≤ 0.25
17,LWEM,≤ 0.25
18,RIKA,≤ 0.25
19,HERC,≤ 0.25
20,YKML,≤ 0.25
21,PCMP,≤ 0.25
22,YVCY,≤ 0.25
23,FREE,≤ 0.25
24,NYKY,≤ 0.25
25,FQLN,9.96
26,NLDG,≤ 0.25

row,Variant,enrichment ratio
1,ACDY,≤ 0.25
2,IQQW,≤ 0.25
3,EFIG,≤ 0.25
4,SHDK,≤ 0.25
5,RMYF,≤ 0.25
6,YPYD,≤ 0.25
7,YNWE,≤ 0.25
8,AQPG,≤ 0.25
9,SGGD,≤ 0.25
10,YGIG,≤ 0.25
11,LLCC,≤ 0.25
12,HRPA,≤ 0.25
13,KDMI,≤ 0.25
14,WLRE,≤ 0.25
15,QSGI,4.66
16,ANQN,≤ 0.25
17,KEPY,≤ 0.25
18,TRDM,≤ 0.25
19,YTGQ,≤ 0.25
20,HYNA,≤ 0.25
21,VKKD,≤ 0.25
22,RIGG,≤ 0.25
23,EVTD,≤ 0.25
24,RDAP,≤ 0.25
25,FVII,≤ 0.25
26,LQLE,≤ 0.25

row,Variant,enrichment ratio
1,LPDR,≤ 0.25
2,ILIF,≤ 0.25
3,TTTW,5.99
4,SDNS,≤ 0.25
5,TWSC,≤ 0.25
6,PANR,≤ 0.25
7,GMCA,≤ 0.25
8,GDVK,≤ 0.25
9,TSCY,10.7
10,YDMI,≤ 0.25
11,QKPP,≤ 0.25
12,GGHS,≤ 0.25
13,GSDN,≤ 0.25
14,VYFS,≤ 0.25
15,GFVT,≤ 0.25
16,YLDF,≤ 0.25
17,LHRM,≤ 0.25
18,YFRE,≤ 0.25
19,RTCG,≤ 0.25
20,SLCD,17.9
21,FMRR,≤ 0.25
22,FCVA,≤ 0.25
23,NGVT,≤ 0.25
24,SDTH,≤ 0.25
25,RWMF,≤ 0.25
26,VSQL,≤ 0.25

row,Variant,enrichment ratio
1,VELD,≤ 0.25
2,NICY,≤ 0.25
3,VSLT,2.72
4,PKEK,≤ 0.25
5,GDSR,≤ 0.25
6,PGAA,≤ 0.25
7,QNKI,≤ 0.25
8,MYDG,≤ 0.25
9,KLDW,≤ 0.25
10,FAEF,≤ 0.25
11,QRPH,≤ 0.25
12,GMVI,1.93
13,LSRD,≤ 0.25
14,LNEN,≤ 0.25
15,YHWY,≤ 0.25
16,AQGR,≤ 0.25
17,EAAF,≤ 0.25
18,VIRP,≤ 0.25
19,WTPK,≤ 0.25
20,YEMV,2.64
21,GEWH,≤ 0.25
22,TMFY,≤ 0.25
23,YNLS,0.487
24,LSAD,≤ 0.25
25,KNGS,≤ 0.25
26,PPQY,≤ 0.25

row,Variant,enrichment ratio
1,SHES,≤ 0.25
2,QTVC,≤ 0.25
3,LLVH,≤ 0.25
4,ISRQ,≤ 0.25
5,FKYC,≤ 0.25
6,SDFH,≤ 0.25
7,PSQI,≤ 0.25
8,YKNA,≤ 0.25
9,PPEP,≤ 0.25
10,MQAS,8.02
11,IQWY,≤ 0.25
12,QKRM,≤ 0.25
13,FLKC,≤ 0.25
14,DIPF,≤ 0.25
15,KTRM,≤ 0.25
16,NFYF,≤ 0.25
17,AWFV,≤ 0.25
18,DFAI,≤ 0.25
19,MSLS,5.72
20,ETAH,≤ 0.25
21,TDMM,11
22,ATAC,≤ 0.25
23,APIR,≤ 0.25
24,EAGH,≤ 0.25
25,TWKT,≤ 0.25
26,QCHR,≤ 0.25

row,Variant,enrichment ratio
1,ADHE,≤ 0.25
2,PNQM,≤ 0.25
3,LCLS,≤ 0.25
4,WSKV,≤ 0.25
5,DSYR,≤ 0.25
6,FHWC,≤ 0.25
7,IEHS,≤ 0.25
8,NRFS,≤ 0.25
9,HRKS,≤ 0.25
10,PVFN,≤ 0.25
11,LDQF,≤ 0.25
12,SAPC,≤ 0.25
13,WMPI,≤ 0.25
14,NLMW,≤ 0.25
15,NSPY,≤ 0.25
16,KAGK,≤ 0.25
17,KDIS,≤ 0.25
18,GIYD,≤ 0.25
19,EIDN,≤ 0.25
20,HYPS,≤ 0.25
21,KSTM,≤ 0.25
22,IYKN,≤ 0.25
23,KITD,≤ 0.25
